Measurements: PubChem BioAssay AID504339 (National Center for Advancing Translational Sciences (NCATS), 2011)
Out of some 390,000 compounds screened, about 17,000 (4.4%) were called active. Inconclusive results, whose numbers are uncertain, are shown with a selection of clear calls. Calls follow the shape of the dose curve; as a rule, active = well fitted inhibition curve with a large enough effect; inconclusive = small, poorly fitted or top-dose-only effect; inactive = no such curve, though single readings can be large or run the other way. Where the call is inconclusive, the potency comes from a doubtful curve fit.

The molecules below were run against Lysine-specific demethylase 4A (Homo sapiens) (UniProt O75164) (assay: qHTS Assay for Inhibitors of JMJD2A-Tudor Domain). Conditions: AlphaScreen JMJD2A-Tudor / H3K4me3 peptide binding; series mostly up to 114 µM.
UniProt O75164, sequence (O75164 whole entry, looked up, the tested form may be a part): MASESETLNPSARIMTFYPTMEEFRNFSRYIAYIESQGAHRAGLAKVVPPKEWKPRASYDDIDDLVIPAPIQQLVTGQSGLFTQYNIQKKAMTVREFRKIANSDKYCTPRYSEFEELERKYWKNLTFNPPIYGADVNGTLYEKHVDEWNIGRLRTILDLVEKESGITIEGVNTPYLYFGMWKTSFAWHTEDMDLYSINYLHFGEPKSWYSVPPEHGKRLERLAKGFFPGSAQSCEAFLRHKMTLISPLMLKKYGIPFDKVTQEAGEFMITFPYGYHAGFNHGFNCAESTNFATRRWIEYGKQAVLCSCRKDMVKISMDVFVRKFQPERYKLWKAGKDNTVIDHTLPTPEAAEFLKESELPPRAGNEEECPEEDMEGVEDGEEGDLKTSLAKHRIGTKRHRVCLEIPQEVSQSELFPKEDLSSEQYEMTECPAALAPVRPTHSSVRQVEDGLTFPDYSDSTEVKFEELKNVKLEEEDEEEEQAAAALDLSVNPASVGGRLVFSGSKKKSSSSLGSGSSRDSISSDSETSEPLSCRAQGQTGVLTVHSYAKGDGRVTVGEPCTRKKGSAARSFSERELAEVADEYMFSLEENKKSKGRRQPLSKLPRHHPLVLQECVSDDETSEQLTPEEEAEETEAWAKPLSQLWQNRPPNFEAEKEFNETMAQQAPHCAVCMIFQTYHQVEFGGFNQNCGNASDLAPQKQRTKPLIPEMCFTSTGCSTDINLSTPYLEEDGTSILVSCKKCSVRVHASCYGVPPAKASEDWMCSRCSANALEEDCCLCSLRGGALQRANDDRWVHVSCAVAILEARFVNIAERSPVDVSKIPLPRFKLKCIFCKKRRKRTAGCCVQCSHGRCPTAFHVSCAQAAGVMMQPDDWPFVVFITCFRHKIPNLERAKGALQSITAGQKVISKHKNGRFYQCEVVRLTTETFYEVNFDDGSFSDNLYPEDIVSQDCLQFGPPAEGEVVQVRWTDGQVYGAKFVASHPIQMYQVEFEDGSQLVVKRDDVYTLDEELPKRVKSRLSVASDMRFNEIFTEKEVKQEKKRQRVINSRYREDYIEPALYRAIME
Also: nearly all actives have a fitted effect of over 50% in size.
Potency is read from the fitted curve at half-maximal effect; tags tell the direction and shape of the fitted curve.

Compound	Potency
COc1cc2c(cc1NC(=O)COC(=O)/C=C/c1ccccc1)oc1ccccc12	inconclusive: 100 µM [inhibitor, single point]
CC(=O)c1ccc(/C=C/c2nc3ccccc3n2C)o1	inactive
COc1ccc(C)cc1NC(=O)N1CCCn2nc(C)cc21	inactive
COc1ccc(/C=C2/C(=O)ON=C2c2ccccc2)cc1OC	active: 79.4 µM
Cc1ccc(S(=O)(=O)C(C#N)c2nc3ccccc3nc2N2CCCC2)cc1 (stereo unspecified)	inconclusive: 56.2 µM [inhibitor, partial curve]
CC(=O)Nc1cccc(NC(=O)CSc2nnc(Cc3cccn3C)n2-c2ccc(F)cc2)c1	inconclusive: 89.1 µM [inhibitor, partial curve]
COc1ccccc1NC(=O)c1c(NC(=O)CCC(=O)O)sc2c1CCCCC2	inactive
O=C(Nc1ccc2nc3n(c(=O)c2c1)CCCCC3)C(=O)N1CCN(c2ccccc2F)CC1	active: 35.5 µM
Cc1ccc(-c2csc(NCCc3nc4cc(Cl)c(Cl)cc4n3CCOCCO)n2)cc1	inconclusive: 89.1 µM [inhibitor, partial curve]
COc1ccc(OC)c(NC(=O)c2cnn(-c3ccc(C)cc3)c2C2CCNCC2)c1	active: 79.4 µM
Cc1ccc(/C=C2/SC(=S)N(CCC(=O)NCCCN3CCOCC3)C2=O)cc1	inconclusive: 22.4 µM [inhibitor, partial curve]
Cc1ccccc1N=C/C=C1/C=C(c2ccccc2)OC(C)(C)O1	inconclusive: 50.1 µM [inhibitor, partial curve]
CCCCOc1ccc(N(CC(=O)NCC2CCCO2)C(=O)CCC(=O)Nc2cc(C)ccn2)cc1 (stereo unspecified)	active: 70.8 µM
COc1ccc(NC(=O)CSc2nc(NS(=O)(=O)c3ccccc3)cc(=O)[nH]2)cc1	inconclusive: 31.6 µM [inhibitor, partial curve]
Cc1nn2c(=O)cc(COC(=O)c3c(F)cccc3Cl)nc2s1	inactive
CCOc1ccc(NC2CCCCC2NS(=O)(=O)c2ccccc2)cc1 (stereo unspecified)	active: 56.2 µM
CCOc1cccc(=O)c2c(C)n(CC3CCCO3)c(C)c12 (stereo unspecified)	inconclusive: 89.1 µM [inhibitor, partial curve, poor fit]
CC(=O)c1cccc(NC(=S)NC(=O)c2cccc(C)c2)c1	inconclusive: 89.1 µM [inhibitor, single point]
COc1ccc(NS(=O)(=O)c2ccc3oc(SC)nc3c2)cc1	inactive
COc1cc(/C=C2\C(=N)N3N=C(S(C)(=O)=O)SC3=NC2=O)ccc1OS(=O)(=O)c1ccc(C)cc1	active: 56.2 µM
Cc1nnc(-c2cnn(-c3ccccc3)c2N)n1Cc1ccccc1	inconclusive: 25.1 µM [inhibitor, single point]
CC(CNS(=O)(=O)c1ccccc1)(c1ccccc1)N1CCOCC1 (stereo unspecified)	inactive
COc1ccc(NC(=S)NC(=O)c2ccc3c(c2)OCCO3)cc1	inconclusive: 15.8 µM [inhibitor, partial curve]

Compound	Potency
CCCN(C(=O)c1coc(=O)c2ccccc12)c1ccccc1C	inactive
CCCOC(=O)c1c(N)sc(C(=O)OCC)c1C	inactive
CN(Cc1nccn1C)C(=O)CC1C(=O)NCCN1Cc1ccc(F)cc1Cl (stereo unspecified)	inconclusive: 7.08 µM [inhibitor, full curve]
COc1cc(CNC2CCCCCC2)cc(OC)c1OC	active: 10 µM
COc1ccc(OC)c(CCNc2nc3ccccc3c3nc(-c4cccnc4)nn23)c1	inactive
Cc1cc2ccccn2c1C(=O)c1nc(NCc2ccco2)ncc1Cl	inconclusive: 20 µM [inhibitor, full curve]
CC(=O)NCC(=O)N(Cc1ccco1)C1(C(=O)NC2CCCCC2)CCCCC1	inconclusive: 89.1 µM [inhibitor, single point]
CCc1c(C)nc2cc(-c3ccc(OC)c(OC)c3)nn2c1NCC1CC1	inconclusive: 79.4 µM [inhibitor, partial curve]
Cc1nn(CCCC(=O)N2CCc3ccccc3C2)c(=O)c2cc3sccc3n12	inactive
CCCCNC(=O)C1=C(N)C(C(=O)Nc2ccc(C)c(S(=O)(=O)N3CCCCC3)c2)SC1=Nc1ccc(C)cc1C (stereo unspecified)	inconclusive: 79.4 µM [inhibitor, partial curve]
COc1cc(/C=C(\C#N)c2nc3ccccc3o2)ccc1O	inconclusive: 11.2 µM [inhibitor, full curve, poor fit]
CCN(CC)C(=O)CN1CCN(c2ncccn2)CC1	active: 4.47 µM
O=C(NC1CC1)C(Cc1ccccc1)NS(=O)(=O)c1ccccc1F (stereo unspecified)	inconclusive: 15.8 µM [inhibitor, single point]
COC(=O)c1cccc(Nc2nc(-c3cccnc3)nc3ccccc23)c1	inactive
CCN(CC)CCSc1nc(O)c(-c2ccccc2)c(=O)[nH]1	inconclusive: 56.2 µM [inhibitor, partial curve, poor fit]
CC(C)N1CCc2c(sc(NC(=O)c3ccc(S(=O)(=O)N4CCc5ccccc54)cc3)c2C(N)=O)C1	inconclusive: 44.7 µM [inhibitor, partial curve]
COc1cc(C(=O)N2CCc3c([nH]c4ccccc34)C2c2ccc(C)cc2)cc(OC)c1OC (stereo unspecified)	inconclusive: 20 µM [inhibitor, full curve]
Nc1c(-c2nc(-c3ccc4c(c3)OCO4)cs2)c2ccccn2c1C(=O)c1ccccc1	inconclusive: 79.4 µM [inhibitor, partial curve]
CC(=O)c1cccc(N(C(=O)CNC(=O)c2ccco2)C(C(=O)NCc2ccco2)c2ccccc2)c1 (stereo unspecified)	inactive
O=C(CSc1nc(-c2cccs2)nc2cc(=O)[nH]n12)Nc1ccccc1F	inconclusive: 79.4 µM [inhibitor, single point]
CCOc1ccc(-c2nc(N)nc(C)c2-c2ccc(Cl)cc2)c(O)c1	inconclusive: 44.7 µM [inhibitor, partial curve]
CCOc1ccc(CCNC(=O)CCc2c(C)nc3cc(-c4ccccc4OC)nn3c2C)cc1	inactive
Cc1cc(Nc2ccccc2)c2c([N+](=O)[O-])c(C)cc(C)c2n1	active: 25.1 µM
